# Reference: paper PMC12136788
# The other results are listed elsewhere or left out.
# T1: UNK ZnF1-3 (human, UniProt Q9C0B0 31-174)
# T1 sequence: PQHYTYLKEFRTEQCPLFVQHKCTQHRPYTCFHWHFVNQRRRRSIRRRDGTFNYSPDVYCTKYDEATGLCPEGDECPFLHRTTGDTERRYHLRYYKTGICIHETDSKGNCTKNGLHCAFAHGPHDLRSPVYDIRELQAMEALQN
# B1: 144733308_144733428_1415_CDS_ENSG00000183309_ENST00000501748|human|control|control (ssRNA)
# RNA: GGGAGUUCUACAGUCCGACGAUCACUGCACACAUAGGGCUUUUCUCCAGUGUGAAUAAUCUGGUGCAGAAGCAGCUUGGAGCUCUGGAUGAAGGCUUUCCCACAGUCUUUACAUUCGAAGGGCCUGUCCCCAGAGUGGAUCUUCAACAGAGGAUUGAGCAUCA
# B2: 107454094_107460476_527_3pUTR_ENSMUSG00000020721_ENSMUST00000106746|mouse|control|control (ssRNA)
# RNA: GGGAGUUCUACAGUCCGACGAUCUACUCGUUGCUGUCUCUGUUUCUGUGAGAAGUGUCUUUAGUCUUGUCAAAUCUUUCGUUACCAUCCCAUUCAGAGACUCCCCUGACAGUGACUUGGCAAGGAUGGAGGACACAAGCUGGACAACAGAGGAUUGAGCAUCA
# B3: 54572153_54572273_469_CDS_ENSMUSG00000061559_ENSMUST00000051822|mouse|control|control (ssRNA)
# RNA: GGGAGUUCUACAGUCCGACGAUCUUUUCCUCUAGUGUCCAAAGAAUAUUCUUUUUUUCCACUUUCCACACCAAAAAUGUUCACUUUCCCCAUGUGAGUUCCUGUGGCCAGAUACUGGGAGUCAGGAGAAAAUGCCAAAGUCCACAACAGAGGAUUGAGCAUCA
# B4: chr9:110092072:110092073:+_ENSG00000119318_ENST00000416373|hu_mus|motif|central (ssRNA)
# RNA: GGGAGUUCUACAGUCCGACGAUCAACUGUAUGUAUCCCUGCCCUAUAUCCUAGCUCCCCACCCCCACCCCCACCAACCGGCGGCCGUAUACCAAAUAUUGUGGAUAUGAGCCCAAGUCACCCCAGACAAUCCAGUGAACAAGGCAACAGAGGAUUGAGCAUCA
# B5: 123892754_123893134_904_3pUTR_ENSMUSG00000038342_ENSMUST00000068237|mouse|control|control (ssRNA)
# RNA: GGGAGUUCUACAGUCCGACGAUCCAUGAGCAUGUCUGUGUCCAGCAGUGAGUCCUCCUCCAUGGGGACUGGGGUUUUCCAGCCAUCCCCAUGUUUAUGCCAAUACAGCAUGUCAUCGUCCUGGGCCAGGCUAGAAAGGUCCUCCAACAGAGGAUUGAGCAUCA
# B6: 10828398_10828887_507_CDS_ENSG00000110321_ENST00000339995|human|control|control (ssRNA)
# RNA: GGGAGUUCUACAGUCCGACGAUCUGCACCCCUACUUCCUCCUCCGCCCGAAGAAGCACUGAAACGAGAAGCACCCCCUUCUGCAAUCGCACUCUCCACUUUGGCGGCUUGACAACGAAGAAUCUUCAAAAGAAUAAUAUUAAUCAACAGAGGAUUGAGCAUCA
# B7: chr13:30086970:30086971:-_ENSG00000139514_ENST00000380752|hu_mus|FALSE|FALSE (ssRNA)
# RNA: GGGAGUUCUACAGUCCGACGAUCAGGCCCUGUGUAGGCUGGGGAAGUGUGCUACCACUAGGCUACACGCCUGUCCAGCCCCACUAACUCUUCCAUUCUCAAGAAUCUUCCAAAGCAGAGGAAAGACAGGGCCAUCAGUCUACCCAACAGAGGAUUGAGCAUCA
# B8: 42180882_42181002_497_3pUTR_ENSMUSG00000036295_ENSMUST00000043884|mouse|control|control (ssRNA)
# RNA: GGGAGUUCUACAGUCCGACGAUCUUGGAGUGGCGUGUCCUUCAUCUUAGCUUUUGUCUUCAGAAAGUUAACAGGCCCUUAAGGAUUCCAGUCACAGCCAGUAAGUUCAGUAGGAGCUGACUGAUGAGGGAAGUAUUUGCAUUUCAACAGAGGAUUGAGCAUCA
# B9: chr4:144460044:144460045:+_ENSG00000153147_ENST00000283131|hu_mus|hu_hu_hu_mus_False|58_68 (ssRNA)
# RNA: GGGAGUUCUACAGUCCGACGAUCACGGUCCAUAGCCUGAAGAUCAACUUGCGGAUUCCAAUCUGAGUCAUACAAAAUUACUACAUCAGCAGUUGCAAGAUUGAUGCCCAGACCACCAGCACGUGUGCUUAGCAUAAAUACAAACAACAGAGGAUUGAGCAUCA
# B10: 76392888_76393008_1816_CDS_ENSMUSG00000034098_ENSMUST00000038364|mouse|control|control (ssRNA)
# RNA: GGGAGUUCUACAGUCCGACGAUCGAGCUUCGGUGUAAUGUCAAUCCCAUUCUUCAGCCAGCCAAGCUGAGGGUCUGGAAUGCCCUCGGCAUGGCACCUAAGGCUUGCAGUUACACCAGGUUCUCUGGCCUGACUCUCUGGAUACAACAGAGGAUUGAGCAUCA
# B11: chr14:76904430:76904431:+_ENSMUSG00000022010_ENSMUST00000022587|mus_mus|mus_mus_mus_hu_True|8_58 (ssRNA)
# RNA: GGGAGUUCUACAGUCCGACGAUCUGCAGCCAAAAACACCCUCGUGGAAAAAAAGAGGGAACACCAGCAGCCUUGUACAAACUAGAUAAAAUCUUCUGGCUUUCCGCAGCCCAGGGAGAAACAGAAAUGGUGCUGGCUAAUUUACAACAGAGGAUUGAGCAUCA
# B12: chr1:46865451:46865452:-_ENSMUSG00000025986_ENSMUST00000027131|mus_hu|FALSE|FALSE (ssRNA)
# RNA: GGGAGUUCUACAGUCCGACGAUCGCAUGUGCUGCUCUCAAAGUUUUGUUUUUGUUUUGAAGUUCAUAGAGUAGGAGGAAAGAAGAGUACUAAAUGAAAACAUUUUAGAUGGAAUGGAAAAGAGUUUGGCUCUUAUAUAUUUGACAACAGAGGAUUGAGCAUCA
# B13: chr1:109605286:109605287:-_ENSG00000197780_ENST00000461096|hu_mus|hu_hu_hu_mus_True|18_28 (ssRNA)
# RNA: GGGAGUUCUACAGUCCGACGAUCAAGUUUCAGAGUAACAUUCAGUAACCUCUUUAAAUGCAAUUAUCCUUAUUAUAAGCUAAGCAGAAUAAUAAUUUAAUACCGUAAGUAAAUACACACAAAACCUUGAACCGCGAAAAUGGUCAACAGAGGAUUGAGCAUCA
# B14: chr5:151611259:151611260:+_ENSMUSG00000034021_ENSMUST00000016569|mus_hu|motif|central (ssRNA)
# RNA: GGGAGUUCUACAGUCCGACGAUCCAUUUUCUGAACAUAACGUUCAAGAGGAAAUAUCUAUACACAAUAACAUUCGGGACGGUUAAAAACUCAUUCAAAUUACAGAAUUUUAUUGAUACAGUAGAUUAAUAAAAACUGAAAGGACAACAGAGGAUUGAGCAUCA
# B15: chr2:128501614:128501615:-_ENSMUSG00000014355_ENSMUST00000014499|mus_hu|FALSE|FALSE (ssRNA)
# RNA: GGGAGUUCUACAGUCCGACGAUCAGUCACAGGGGAAUCUCCUUUGGAGAGGCUUCUGAGAUGUGCUGUGAGGGAGCUGCUAGUGGCCACAUUCUGUGGGGUUCCCCCCUGUUCAGAGAACUUUAAAACAACAUUCUCUUCCUCCAACAGAGGAUUGAGCAUCA
# B16: chr8:26196428:26196429:+_ENSG00000221914_ENST00000315985|hu_hu|motif|central (ssRNA)
# RNA: GGGAGUUCUACAGUCCGACGAUCUUUGUUCUCCUGCUCCUGUUGAAAGAUGACAACUCUACCACCUUUAUCUCCUGUUGCGGGUAAUUCUCCAGAAUGAUUAAAUUCUACUGUAGAAAUUAUAUCUGCUUCUGCUACAUCAUCCAACAGAGGAUUGAGCAUCA
# B17: chr14:63765801:63765802:-_ENSMUSG00000021273_ENSMUST00000054963|mus_hu|FALSE|FALSE (ssRNA)
# RNA: GGGAGUUCUACAGUCCGACGAUCCUGCCUUGUUUUGCUAGAAGAUGGGUCUGAGUCGGGGAUUCUAUGAUAAAUCUCUUCCAUAUACUGAUAUAUGAUGGCUUUGACAGCUGGCAUAUUGGUGGCAUCCAUCAUCAGGGUCACCAACAGAGGAUUGAGCAUCA
# B18: chr17:32491106:32491107:-_ENSMUSG00000024050_ENSMUST00000163107|mus_mus|motif|central (ssRNA)
# RNA: GGGAGUUCUACAGUCCGACGAUCCAUUGAUAACCAAAAGGUGGCCACUGAAAAGGUUAAAAGGUCAAUUAGCUCCCGGUAUCGGGCUGGCCCAGGAUUGCAAAAUAAAAAGAUCCACGUUCCUUAUUCUCUACACAAAACGCACAACAGAGGAUUGAGCAUCA
# B19: chr3:10015032:10015033:+_ENSMUSG00000027533_ENSMUST00000029046|mus_mus|mus_mus_mus_hu_True|1_48 (ssRNA)
# RNA: GGGAGUUCUACAGUCCGACGAUCGUUUUUACCAUCACAAGUGAUGAUACAAUCUGGCUUGGCCAUUGCGCCCAUUUUUCGCAAAGCCAGUCCUACUCCUAGCUCCUUCAUGUAUUCAUCAAAGCCUUUGCUGUCCAUCAGGCGCAACAGAGGAUUGAGCAUCA
# B20: chr2:224824363:224824364:+_ENSG00000135900_ENST00000258383|hu_hu|FALSE|FALSE (ssRNA)
# RNA: GGGAGUUCUACAGUCCGACGAUCAGCUUCUUUCUCUAUCCCAAGUUGUUGGCGUUUGGCCUCCUCACUUUUAAUAUAGCAGCUAUUAACAAAUGCAGUUUUGAGAAGAUCUAAGGAAAAGUUUUCCUGUAACCGAUGUCCAAACAACAGAGGAUUGAGCAUCA
# B21: 97010558_97014216_1642_CDS_ENSG00000090060_ENST00000216277|human|control|control (ssRNA)
# RNA: GGGAGUUCUACAGUCCGACGAUCAUGGAGUUGCUUUCUUUUUACAUGCAUUGCAGCAAUUUUCAUAUCCACCUCAAACAUCUUGCUGUUUAUUGCUUGCCUAUAAACUGUAUCUGUGAAAGACUGAAUAUCAUAGGUGAGAUCCAACAGAGGAUUGAGCAUCA
# B22: chr1:109605286:109605287:-_ENSG00000197780_ENST00000461096|hu_mus|hu_hu_hu_mus_True|38_78 (ssRNA)
# RNA: GGGAGUUCUACAGUCCGACGAUCAAGUUUCAGAGUAACAUUCAGUAACCUCUUUAACAAUUGUAAUCCUUAUUAUAAGCUAAGCAGAAUAAUAAUUUAAUACAUAGAGUGAACUACACACAAAGCCUGAACCGCGAAAAUGGUCAACAGAGGAUUGAGCAUCA
# Target: T1, UNK ZnF1-3
# Experiment: nsRBNS (natural sequence RNA bind-n-seq); RBNS binding buffer (assumed for nsRBNS): 25 mM Tris pH 7.5, 150 mM KCl, 3 mM MgCl2, 0.01% Triton X-100, 500 ug/ml BSA, 20 U/ml SUPERase-In, 4 C; UNK is unkempt and MSI1 is Musashi-1; names of the RNAs are library labels; protein concentration not given here; high values mean tight binding
row,Binder,binding signal
1,B1,1.08 enrichment R
2,B2,0.812 enrichment R
3,B3,1.05 enrichment R
4,B4,1.6 enrichment R
5,B5,1.05 enrichment R
6,B6,2.14 enrichment R
7,B7,1.02 enrichment R
8,B8,1.13 enrichment R
9,B9,1.17 enrichment R
10,B10,0.258 enrichment R
11,B11,2.16 enrichment R
12,B12,1.57 enrichment R
13,B13,0.893 enrichment R
14,B14,1.69 enrichment R
15,B15,1.17 enrichment R
16,B16,0.892 enrichment R
17,B17,0.938 enrichment R
18,B18,1.24 enrichment R
19,B19,0.665 enrichment R
20,B20,0.985 enrichment R
21,B21,0.647 enrichment R
22,B22,0.85 enrichment R
